In the supplement of paper PMC10126150:
Sequences with one replicate were seen in a single cluster, so their values are uncertain.

Test system: ATP
Experiment: switch fluorescence ratio, 500 uM ATP over buffer (Cy3 cluster intensity, sum of 5 cycles each) (fold (ratio)); higher = stronger signal-on switching upon ATP binding; sequences stand for … in TCGTCGGCAGCGTCAGATGTGTATAAGAGACAGTTTTTTTTTTTTTTTTTTTTTTTTT…TC
Conditions: aptamer strand: ATP DNA aptamer (quencher-CACCTGGGGGAGTATTGCGGAGGAAGG + anchor), 100 nM annealed; ATP concentration: 500 uM; one replicate
In short: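 Cy3-labelled switching-strand clusters on a modified Illumina MiSeq flow-cell were annealed to 100 nM quencher-labelled ATP aptamer, imaged in selection buffer, then imaged after 15 min with 500 uM ATP at 22 °C. Five buffer/ATP cycles ran, with NaOH stripping and re-annealing between them. The fluorescence ratio is summed target-cycle over summed buffer-cycle Cy3 intensity per cluster, averaged per switch-domain sequence. Clusters outside 100-1000 RFU were excluded.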
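Note: ATP exposure 15 min at 22 °C before imaging.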

Sequence | switch fluorescence ratio
AGTGATGATG | 0.986
AGGTGGGTCG | 1.02
ACTACCTCTG | 1.32
TTGGTTCAGT | 0.964
CTGAAAGCAG | 1.41
TGGATTAGAC | 1.01
AGGCATAGGC | 0.997
CGGTAGGGAG | 0.957
AAAGAATGCT | 1.11
GGAGATAAGT | 1.04
GACCGAGTGG | 0.983
GGCGTGAATT | 1
TCCGGCGATA | 1.01
TACGGCTGCT | 1.06
TATTGCTTTT | 1.07
TGACACGCAT | 1.43
ACGGTTTTGT | 0.954
AGGCAAAATC | 1.02
CTTCGGTAGG | 1
GTGCTTGCAA | 0.963
AGTTTTTAAC | 1.01
CGCTGGACAA | 1.03
AAGTACGGT | 1.3

Sequence | switch fluorescence ratio
AGCAGGTCTT | 0.999
GCTTCGAACG | 1.11
TAATACAGCG | 1.04
TCGTGCAGCG | 0.947
GTTTCTCGTA | 0.984
CGCGATTCAC | 2.98
AAATGGGCCT | 1.11
GACTTCCTGG | 0.959
GCGATCGTGA | 1.06
GAGCAAAAGA | 1.25
AAGGCACACA | 1.05
ATCTCCTAAG | 1.03
TTACTCAATT | 1.05
AAATGTGAGC | 0.94
TACGAAGTAA | 0.936
GTTGTACGGC | 0.992
CATTCTTGG | 0.947
GAGTCAAATA | 0.989
CAGATAGTTA | 1.01
TGTTGACGCA | 1.09
TGAACCAGCT | 1.03
CGTAGTTGCA | 0.946
GAGTTAGAGA | 0.976

Sequence | switch fluorescence ratio
ATCGGAGTCT | 0.967
AGCTACAAGT | 1.03
GATTTCTGTC | 1.01
TGAGTATCCA | 1
TAGTTCAAAT | 1
CCCGAAACTT | 1.11
ATTTCAATGG | 1.02
TGGCGGCGGC | 1.02
TTGGCGCAGG | 1.05
TGGCGCCAAG | 0.997
CAATCGTATG | 1
CTAAACATGC | 0.995
AACGAAATGC | 1.94
TTGAGGGT | 0.99
ATGTATCTGG | 0.994
GGGCTGTGAC | 1.04
CTAGCGGAAA | 0.995
TAACCTTCTT | 2.13
GCAGCTTAGG | 1.05
CTAGATTGTC | 1.01
TTCAAGCCAC | 1.12
CGGCACCGGA | 1.06
CGTGTGTCCT | 0.955

Sequence | switch fluorescence ratio
GGCATCAGCT | 1.02
CATCTTGAGA | 0.994
TTTCTCCGGG | 1.08
TTTTAGCTAA | 1.03
CTACCATCGT | 0.989
AAACCATTT | 0.953
GTGGTTCGAA | 1
CACGTGGGCT | 1.1
GGAACCAACA | 1.04
TATATTCTGC | 0.964
TTCATGAAGG | 1
AGGTTGATGT | 0.973
GGAGTGCGTA | 1.08
AAGTAGTTGT | 0.981
CTTAGTACTT | 1.04
ACTCAGCTTC | 1.62
GGATTGACGC | 0.967
AAGTGACTAT | 0.989
TTCGACACTT | 1.03
CGATATTTGA | 0.999
TATGGGTGG | 1.02
GGGATCGCGA | 1.02
GCCATTATGT | 1.02

Sequence | switch fluorescence ratio
TGATCGATGC | 1.06
AAGTAAGCTC | 0.978
GGAATTGACT | 0.985
GTTGTTCAGC | 0.947
TAGAGGAACG | 1.02
GGTTAAGTAA | 0.986
CATTTGATGC | 0.972
AGTGTCAATC | 1.04
TTCATATCTG | 1.04
CGAGTGAAGG | 0.989
CTTTGCACAG | 1.06
GGGTCTGTCG | 0.96
ATCAAAGACT | 1.04
CTTACTAGAG | 0.953
GGACGGTTT | 1.01
ATTAACGAAG | 0.988
TCCGCTAAAA | 1.08
TCGCTTTTAT | 1.08
AGGGTGCGTT | 0.933
AGGTCCTCTC | 1.02
ACCTGTTTTG | 0.973
GATATCGAGC | 0.98
ATGAATCCAG | 1

Sequence | switch fluorescence ratio
AGCGAAATGC | 1.29
GATCCCTTCT | 1.11
GGGCTATTCT | 0.985
GGTTCTAGGT | 1.01
ATGAATTTAT | 1.05
GTAAGAGTCT | 0.989
TGGTGGGTTA | 1.01
GGATGATTG | 0.903
ACCCTCGGCG | 1.05
GTGTATCGTG | 0.983
CGGTCGGCTT | 0.98
ACCAAGCGCC | 1.04
TTCTTGCATG | 1.11
TCGGACTGTC | 0.976
TACGAACGTA | 1.1
TCGCACTGTA | 0.986
CATATCGCGA | 1.06
CTAATAGGCT | 0.964
CGCCCGAGAG | 1.08
GGAGTTCACC | 0.939
GTGCTATCAG | 1.01
TCCTGTGACT | 0.997
GCTCATACGC | 1.21

Sequence | switch fluorescence ratio
GTAGGTACTG | 1.01
ATCCGGTAGT | 1.03
CGTTTGTCGC | 0.969
GTATGGTGGT | 0.996
CCTAGTAAAT | 1.05
TGGCAGATCA | 0.99
TAATCGGCTA | 1.03
GTCGGGTCGG | 1.01
ATATATGAGC | 1.06
GGATACAAGC | 0.964
CGGCCCTTG | 1.01
CAAGAAGCCC | 0.938
GAACTGGAGC | 1.05
ACACCCGACC | 1.38
CGGTGAGCGC | 0.975
GCACAGTTAG | 0.982
CCTGGACACG | 1.03
TTCTGTGCGA | 1.25
TGACCAAGTG | 0.926
